About 18,000 (5.8%) of roughly 310,000 compounds were called active. The inconclusive results got no clear call from the source; some entries with a clear call stand among them for comparison. Calls come from the whole dose curve; as a rule, active = well fitted inhibition curve with a large enough effect; inconclusive = small, poorly fitted or top-dose-only effect, or another doubt; inactive = no such curve, though single readings can be large or run the other way. Potencies of inconclusive entries are left out as doubtful fits.
assay: Primary qHTS for delayed death inhibitors of the malarial parasite plastid, 48 hour incubation; conditions: P. falciparum luciferase growth in erythrocytes; series mostly up to 28.7 µM; activity change, negative = inhibition: at the top concentration
Outline: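 Read-out is firefly luciferase luminescence from an integrated reporter in P. falciparum, so falling signal marks reduced parasite growth. Infected erythrocytes were at 2% hematocrit and 0.1% parasitemia (final) in Albumax-supplemented RPMI 1640.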
% is set by controls: 0 for no effect and ±100 for the full control effect; potency is the fitted concentration of half-maximal effect; tags give direction and shape of the fitted curve.

Compound | activity change, negative = inhibition | Potency
O=C(N/N=C/C=C\c1cccc([N+](=O)[O-])c1)c1cccnc1 | inactive: -1.79% | –
CCCN(CC1CC1)CC(O)c1ccccc1 (stereo not given) | – | active: 14.7 µM
COc1ccccc1/C=C/c1nc(S(=O)(=O)c2ccccc2)c(N2CCC(C(N)=O)CC2)o1 | inactive: -4.75% | –
CCSc1ccc([C@@H]2[C@@H]3C(=O)N(CC)C(=O)[C@@H]3[C@]3(C(=O)OC)CCCCN23)cc1OC | – | active: 13.1 µM
CSC1=NC(C(Cl)(Cl)Cl)N=C(c2ccccc2)N1 (stereo not given) | – | inconclusive [inhibitor, single point]
CC(C)CN(C(=O)COC(=O)c1ccc2ccccc2c1)c1c(N)n(Cc2ccccc2)c(=O)[nH]c1=O | – | inconclusive [inhibitor, single point]
CCc1nc2ccccc2nc1N1CCN(S(=O)(=O)c2ccccc2)CC1 | – | inconclusive [inhibitor, partial curve, poor fit]
CN1CCN(S(=O)(=O)c2ccc(NC(=S)NC(=O)c3ccccc3)cc2)CC1 | inactive: -27.6% | –
CCn1cc(C(=O)O)c(=O)c2cc(F)c(N3CCN(C(=S)NC(=O)c4ccc(OC)cc4)CC3)cc21 | – | inconclusive [inhibitor, partial curve, poor fit]
CCn1cc([N+](=O)[O-])c(C(=O)Nc2ccc(Cn3nc(C)cc3C)cc2)n1 | inactive: -7.56% | –
CCOc1ccc(NC(=O)N2CC=C(n3c(=O)[nH]c4ccccc43)CC2)cc1 | – | inconclusive [inhibitor, partial curve, poor fit]
O=C(CSc1ncnc2ccccc12)Nc1cc(S(=O)(=O)N2CCCCC2)ccc1Cl | – | inconclusive [inhibitor, single point]
O=C(NCc1ccc(Cl)cc1)C(=O)NCC1OCCN1C(=O)c1ccc(Cl)cc1 (stereo not given) | inactive: -22.7% | –
COC(=O)/C=C1/N/C(=N\c2nc(C)cc(C)n2)N(c2ccccc2)C1=O | inactive: -9.59% | –
O=C(CSCc1c(Cl)cccc1Cl)Nc1ccccc1-c1ccccc1 | – | inconclusive [inhibitor, single point]
CN(C)S(=O)(=O)c1ccc(Cl)c(NC(=O)CN2CCN(c3ccccn3)CC2)c1 | – | inconclusive [inhibitor, partial curve]
COc1cccc(CN2CCN(C(=O)c3ccco3)CC2)c1 | inactive: 42.9% | –
Cc1ccc(S(=O)(=O)Nc2cc(C(F)(F)F)ccc2N2CCOCC2)c(C)c1 | – | inconclusive [inhibitor, partial curve]
O=C(CSc1nc(-c2ccc(Cl)cc2)cs1)Nc1cccc([N+](=O)[O-])c1 | inactive: -13% | –
CCN(CC)S(=O)(=O)c1ccc(NN=C(C#N)C#N)cc1 | – | inconclusive [inhibitor, single point]
CCN1CCCC1CNC(=O)c1ccc2c(c1)N(Cc1ccccc1F)C(=O)c1ccccc1S2(=O)=O (stereo not given) | – | active: 9.28 µM
O=S1(=O)C=CC(Nc2cccc(Cl)c2)C1 (stereo not given) | – | inconclusive [inhibitor, single point]
O=c1[nH]c(N2CCCCC2)nc2ncn(Cc3ccccc3)c12 | inactive: -22.8% | –

Compound | activity change, negative = inhibition | Potency
O=c1[nH]nc(-c2ccccc2)c2ccccc12 | – | inconclusive [inhibitor, full curve, poor fit]
CNC(=O)c1[nH]nc2c1CCc1cc(OC)ccc1-2 | – | inconclusive [inhibitor, full curve]
CCCOc1ccc(Br)cc1CSC(=N)N | – | inconclusive [inhibitor, single point]
CCOC(=O)c1cn(Cc2ccc(Cl)cc2Cl)c2cc(C)nn2c1=O | – | inconclusive [inhibitor, single point]
CC[C@H](C)C(N)c1cn(C(CCCN=C(N)N)C(=O)N2CCNCC2)nn1 (stereo not given in full) | inactive: 30.3% | –
COc1ccc(CNC(=O)c2ccc[nH]2)cc1Cl | inactive: -5.1% | –
COc1ccc(C2c3[nH]c4ccccc4c3C[C@H]3C(=O)N(C)CC(=O)N23)cc1OC (stereo not given in full) | – | inconclusive [inhibitor, single point]
Cc1ccc(C(c2nnnn2C2CCCC2)N2CCc3ccccc32)cc1 (stereo not given) | – | inconclusive [inhibitor, single point]
Cc1ccc(NC(=S)N2CCN(S(=O)(=O)c3ccc(F)cc3)CC2)cc1 | – | inconclusive [inhibitor, full curve, poor fit]
Cc1ccc(C)c(S(=O)(=O)NCCCc2ccccc2)c1 | inactive: -4.16% | –
NCC(=O)Nc1ccc(Br)cc1 | – | inconclusive [inhibitor, partial curve, poor fit]
O=C(CCC1CCCC1)NNC(=O)c1ccccc1O | – | inconclusive [inhibitor, single point]
Cc1ccc(C(=O)N/C(=C/c2ccc(-c3cccc([N+](=O)[O-])c3)o2)C(=O)NC(C)(C)C)cc1 | inactive: -4.04% | –
Cc1ccc(Cn2c(NC(=O)c3ccco3)nc3ccccc32)cc1 | – | inconclusive [inhibitor, single point]
Cc1ccc(SCC(=O)Nc2ccc(-c3nnc(-c4ccco4)o3)cc2)cc1 | – | inconclusive [inhibitor, partial curve]
COc1ccc(S(=O)(=O)N2CCOCC2)cc1NC(=O)c1cc(C)oc1C | – | inconclusive [inhibitor, single point]
CCOc1ccc(CCNC(=O)COC(=O)COc2ccc(Br)cc2)cc1OCC | – | inconclusive [inhibitor, partial curve]
O=C(NC(=S)Nc1ccc(F)c(Cl)c1)C1CC1 | inactive: -37.2% | –
CCN(CC)c1ccc(NC(=O)COc2ccccc2C)cc1S(=O)(=O)Nc1ccccc1OC | – | active: 9.28 µM
O=C(C1CCC(CNc2c(N3CCCC3)c(=O)c2=O)CC1)N1CCc2ccccc21 (stereo not given) | – | inconclusive [inhibitor, partial curve, poor fit]
Cc1ccc(NC2=NCC(Cc3ccc(Br)cc3)S2)cc1 (stereo not given) | – | inconclusive [inhibitor, single point]
O=C(NC1CCCC1)c1ccc2nc(-c3ccco3)c(-c3ccco3)nc2c1 | – | inconclusive [inhibitor, single point]
